In patent US20020128269A1, “Substituted heterocyclic compounds for treating multidrug resistance” (priority 2000, published 2002):
At least one read-out could not be matched to a standard name with certainty.

System: NIH-MDR1-G185 cells
Assay: Fluorescent Substrate Accumulation Assay (BODIPY-FL Taxol accumulation)
Format: cell-based
Settings: fluorescence in NIH-MDR1-G185 cells in presence / absence of modulator; BODIPY-FL Taxol 500 nM, 40 min at 37° C; modulator final concentration of 10 microliters (so in the source)
Description: NIH-MDR1-G185 cells (obtained from M. Gottesman, NIH) were harvested and resuspended in RPMI-1640 containing L-glutamine, 10% Cosmic Calf Serum and penicillin-streptomycin. Cell suspension aliquots of 175 microliters (1×10^5 cells) were added to individual wells of a 96 well microtiter plate and preincubated for 15 min at 37° C with 20 microliters MDR modulator diluted in cell culture media to give a final concentration of 10 microliters. Control wells received no modulating agent. BODIPY-FL Taxol (Molecular Probes, Eugene, Oreg.) was added to each well in 10 microliter aliquots to give a final concentration of 500 nM and cells were incubated for 40 min at 37° C. Cells were centrifuged at 100× g for 5 min at 4° C. and the cell pellet washed with 200 microliters cold PBS to remove fluorescent medium from wells. Cells were centrifuged once more, media removed, and cells resuspended in 200 microliters cold PBS. Fluorescence accumulation was measured in a fluorescence plate reader fitted with an excitation filter of 485 nm and an emission filter of 538 nm. BODIPY-FL taxol accumulation in the cells was calculated as follows:
Accumulation Index=(fluorescence in NIH-MDR1-G185 cells in the presence of modulator )/(fluorescence in NIH-MDR1-G185 cells in absence of modulator)
Accumulation Index of various compounds prepared above was tested according to the method in Reference Example 3.

Structure (SMILES)	Accumulation Index
COc1ccc(S(=O)(=O)N2CCN(C(=O)COCc3ccccc3)CC2C(=O)N2CCN(c3ccccc3C)CC2)cc1OC (centres unmarked) [Compound 15, 1-(3,4-Dimethoxybenzenesulfonyl)-4-(benzyloxyacetyl)piperazine-2-carboxylic Acid [1-(o-tolyl)piperazine-4-yl]amide]	4
COc1ccc(S(=O)(=O)N2CCN(C(=O)COCc3ccccc3)CC2C(=O)N2CCN(C(c3ccccc3)c3ccccc3)CC2)cc1OC (centres unmarked) [Compound 7, 1-(3,4-Dimethoxybenzenesulfonyl)-4-(benzyloxyacetyl)piperazine-2-carboxylic Acid (4-benzhydrylpiperazine-1-yl)amide]	5
O=C(NC(CCCc1ccccc1)CCCc1ccccc1)C1CN(C[C@@H](O)COc2cccc3ncccc23)CCN1C(=O)CCc1cccnc1 (stereo partly drawn) [Compound 36, 1-[3-(3-Pyridyl)propanoyl]-4-{1-[2-(R)-hydroxy-3-(quinolin-5-yloxy)-propyl]}-piperazine-2-carboxylic acid [4-phenyl-1-(3-phenyl-propyl)-butyl]-amide]	6
COc1ccc(S(=O)(=O)N2CCN(C(=O)c3ccc(Oc4ccccc4)cc3)C[C@H]2C(=O)N2CCN(C(c3ccccc3)c3ccccc3)CC2)cc1OC [Compound 12, 1-(3,4-Dimethoxybenzenesulfonyl)-4-(4-phenoxybenzoyl)-(S)-piperazine-2-carboxylic Acid (4-benzhydrylpiperazine-1-yl)amide]	3
COc1ccc(S(=O)(=O)N2CCN(C(=O)c3ccc(-c4ccccc4)cc3)CC2C(=O)N2CCN(C(c3ccccc3)c3ccccc3)CC2)cc1OC (centres unmarked) [Compound 4, 1-(3,4-Dimethoxybenzenesulfonyl)-4-(4-phenylbenzoyl)piperazine-2-carboxylic Acid (4-benzhydrylpiperazine-1-yl)amide]	2
CC(C)(C)OC(=O)N1CCN(C[C@@H](O)COc2cccc3ncccc23)CC1C(=O)NC(CCCc1ccccc1)CCCc1ccccc1 (stereo partly drawn) [Compound 29, 1-(tert-butoxycarbonyl)-4-{1-[2-(R)-hydroxy-3-(quinolin-5-yloxy)-propyl]}-piperazine-2-carboxylic Acid [4-phenyl-1-(3-phenyl-propyl)-butyl]-amide]	6
O=C(NC(CCCc1ccccc1)CCCc1ccccc1)C1CN(C[C@@H](O)COc2cccc3ncccc23)CCN1C(=O)CCCCCc1ccccc1 (stereo partly drawn) [Compound 37, 1-(6-Phenylhexanoyl)-4-{1-[2-(R)-hydroxy-3-(quinolin-5-yloxy)-propyl]}-piperazine-2-carboxylic Acid [4-phenyl-1-(3-phenyl-propyl)-butyl]-amide]	7
COc1ccc(S(=O)(=O)N2CCN(C[C@@H](O)COc3cccc4ncccc34)CC2C(=O)N2CCN(C(c3ccccc3)c3ccccc3)CC2)cc1OC (stereo partly drawn) [Compound 17, 1-(3,4-Dimethoxybenzenesulfonyl)-4-{1-[2-(R)-Hydroxy-3-(quinolin-5-yloxy)-propyl]}-piperazine-2-carboxylic Acid (4-benzhydrylpiperazine-1-yl)amide]	7
O=C(NC(CCCc1ccccc1)CCCc1ccccc1)C1CN(C[C@@H](O)COc2cccc3ncccc23)CCN1C[C@@H](O)COc1cccc2ncccc12 (stereo partly drawn) [Compound 28, 1,4-bis{1-[2-(R)-hydroxy-3-(quinolin-5-yloxy)-propyl]}-piperazine-2-carboxylic acid [4-phenyl-1-(3-phenyl-propyl)-butyl]-amide]	9
O=C(NC(CCCc1ccccc1)CCCc1ccccc1)C1CN(C[C@@H](O)COc2cccc3ncccc23)CCN1C(=O)c1ccc2ncccc2c1 (stereo partly drawn) [Compound 34, 1-(6-Quinolinecarbonyl)-4-{1-[2-(R)-hydroxy-3-(quinolin-5-yloxy)-propyl]}-piperazine-2-carboxylic Acid [4-phenyl-1-(3-phenyl-propyl)-butyl]-amide]	9
O=C(NC(CCCc1ccccc1)CCCc1ccccc1)C1CN(C[C@@H](O)COc2cccc3ncccc23)CCN1 (stereo partly drawn) [Compound 31, 4-{1-[2-(R)-Hydroxy-3-(quinolin-5-yloxy)-propyl]}-piperazine-2-carboxylic Acid [4-phenyl-1-(3-phenyl-propyl)-butyl]-amide]	8
